# Measurements as given in PubChem BioAssay AID463173 (ICCB-Longwood Screening Facility, Harvard Medical School, 2010).
# Among all 52,000 compounds or so, about 1,700 (3.3%) were called active. Rule as the data show it: active = survival mostly below about 52% (no sharp cut-off); inactive = mostly above about 56%. This is one part of the list.
# Tested on: Wild type
# Assay: S. aureus survival, RN4220 and DeltatarO strains – OD600, teichoic acid synthesis inhibitors, primary screen (AID 463173)
# Settings: S. aureus RN4220 wild type/DeltatarO growth, OD600, 18 h, active compounds read low, screened at 18.75 µg/mL (by protocol)
row,Structure (SMILES),survival
1,Cc1ccccc1NC(=O)c1cccc2c(=O)c3c([nH]c12)CCCC3,inactive: 80%
2,CC(C)N(C(=O)CSc1nnc(Cn2nnc3ccccc32)n1C)C(C)C,inactive: 102%
3,Cc1ccc2cc(CN(C)C(=O)c3cccc(Cl)c3)c(=O)[nH]c2c1,inactive: 83%
4,CCC1CN(C(=O)Nc2cc(C)ccc2OC)c2cc(Cl)ccc2O1 (centres undefined),inactive: 82%
5,CCCCC(=O)OCc1cc(=O)n2nc(C3CCCCC3)sc2n1,inactive: 111%
6,COC(=O)c1ccc(NC(=O)CC2Nc3cc(C)c(C)cc3NC2=O)cc1 (centres undefined),inactive: 64%
7,Cc1cc(C)n(-c2nc3ccccc3nc2Nc2ccc(Cl)c(Cl)c2)n1,active: 1%
8,COc1ccccc1NCc1cccn1-c1nnc(N2CCCCCC2)s1,inactive: 60%
9,CNC(=O)c1nc(-c2ccccc2)oc1C,inactive: 112%
10,Cc1cc(C)cc(OCC(=O)NC(Cc2c[nH]c3ccccc23)C(=O)O)c1 (centres undefined),inactive: 70%
11,Cc1cccc(OCC(=O)Nc2c(C(=O)N3CCN(c4ccccc4F)CC3)oc3ccccc23)c1,inactive: 83%
12,COc1ccc(C2c3c(n(C)c4ccccc34)C(=O)N2CC(=O)Nc2cc(Cl)ccc2C)cc1 (centres undefined),inactive: 80%
13,Cc1ccc2onc(CC(=O)Nc3cccc(C(F)(F)F)c3)c2c1,inactive: 92%
14,CCCc1cc(=O)n2[nH]c(NC(=O)c3ccccc3Cl)nc2n1,inactive: 112%
15,CCOC(=O)N1CCN(C(=O)CN(c2cccc(Cl)c2)S(=O)(=O)c2ccccc2)CC1,inactive: 63%
16,CCCN(C(=O)c1cc2c(=O)oc3ccccc3c2s1)c1cccc(Cl)c1,inactive: 74%
17,Cc1ccc(NC(=O)N2CCc3cc(S(=O)(=O)N4CCC(C)CC4)ccc32)cc1F,inactive: 126%
18,CCOC(=O)c1ccc(N2C(=O)c3[nH]nc(-c4ccc(OC)cc4)c3C2c2ccccc2Cl)cc1 (centres undefined),inactive: 75%
19,Cc1ccccc1C(=O)NC1CCN(Cc2nnnn2C2CCCC2)CC1,inactive: 102%
20,O=C(Nc1ccccc1)N(Cc1cccs1)c1ccc(F)cc1,inactive: 86%
21,COc1cccc(CNC(=O)c2cc(S(=O)(=O)N3CCCCCC3)cn2C)c1,inactive: 85%
22,CCOC(=O)c1sc(N2C(=O)c3oc4ccc(C)cc4c(=O)c3C2c2ccccc2F)nc1C (centres undefined),inactive: 134%
23,CCOC(=O)CSc1nc2cc3c(cc2c(=O)n1CCCC(=O)NCCc1ccc(OC)c(OC)c1)OCO3,active: -4%

row,Structure (SMILES),survival
1,CCOC(=O)c1c(NC(=O)CSc2cn(CCNC(=O)c3ccc(OC)c(OC)c3)c3ccccc23)sc2c1CCCC2,inactive: 80%
2,CCc1cccc(NS(=O)(=O)c2ccc3c(c2)n(C)c(=O)c(=O)n3C)c1,inactive: 82%
3,CCOc1ccc(N2C(=O)c3n[nH]c(-c4cccs4)c3C2c2cccc(F)c2)cc1 (centres undefined),inactive: 60%
4,CCOC(=O)c1ccc(-n2c(-c3ccc(C)cc3)c(C)n3c4c(=O)n(C)c(=O)n(C)c4nc23)cc1,inactive: 73%
5,COc1ccc(-c2cc(-c3ccc4c(c3)NC(=O)CO4)nc3c2COc2ccc(F)cc2-3)cc1,inactive: 68%
6,CCc1nonc1NC(=O)c1oc2ccc(C)cc2c1C,inactive: 91%
7,O=c1[nH]ncc(NCc2ccc(Cl)cc2)c1Cl,inactive: 87%
8,O=C(CCCSc1nc(-c2ccco2)cc(C(F)(F)F)n1)Nn1cnnc1,inactive: 108%
9,CN(C)c1ccc(-c2nc(-c3ccco3)no2)cc1[N+](=O)[O-],inactive: 86%
10,CCc1ccc(NC(=O)c2ccc(F)c(S(=O)(=O)NCc3ccc(Cl)c(Cl)c3)c2)cc1,inactive: 129%
11,CCN(CC)S(=O)(=O)c1ccc2c(c1)N(CC(=O)N1CCN(c3cccc(OC)c3)CC1)C(=O)CO2,inactive: 60%
12,Cc1ccc(Cl)cc1-n1ncc2c(NCCCc3ccccc3)ncnc21,inactive: 133%
13,Cc1c(Nc2nc3ccccc3n3c(C)nnc23)cccc1C(=O)O,inactive: 84%
14,CCOc1ccccc1CNC(=O)c1ccc2c(c1)nc1n2CCCCC1,inactive: 112%
15,Fc1ccc(-n2ncc3c(N4CCCCCC4)ncnc32)cc1,inactive: 82%
16,Cc1ccc(NC(=O)N2CC3CCCN3c3ccccc32)c(C)c1 (centres undefined),inactive: 117%
17,COc1ccc(NC(=O)c2ccco2)cc1NC(=O)COc1ccc(Cl)c(C)c1,inactive: 107%
18,Cc1ccc(-c2cc(C(=O)N(Cc3ccc(C(C)(C)C)cc3)Cc3ccco3)no2)cc1,inactive: 123%
19,Cc1cc(N2CCN(c3cccc(C(F)(F)F)c3)CC2)n2nc(-c3ccccc3)nc2n1,inactive: 87%
20,CCc1cccc(C)c1NC(=O)CCn1c(=O)c2cccn2c2ccccc21,inactive: 79%
21,CC(C)C(=O)NCC1(N(C)C)CCCCC1,inactive: 87%
22,CCOc1ccc(C(=O)Nc2c(C(=O)N3CCN(c4ccccc4F)CC3)oc3ccccc23)cc1,inactive: 82%
23,Cc1ccc(NS(=O)(=O)c2cc3[nH]c(=O)c(=O)[nH]c3cc2C)cc1Cl,inactive: 75%

row,Structure (SMILES),survival
1,CCOc1ccc(-n2nc(CO)c(C(=O)NCc3cccs3)n2)cc1,inactive: 82%
2,Cc1ccc([N+](=O)[O-])cc1S(=O)(=O)N1CCn2cccc2C1c1ccccc1 (centres undefined),inactive: 92%
3,COc1ccc(N2CCN(Cc3cccn3-c3nnc(N4CCN(C5CCCCC5)CC4)s3)CC2)cc1,inactive: 93%
4,Cc1nc(SC(C)C(=O)Nc2ccccc2Cl)cc(-c2ccccc2)n1 (centres undefined),inactive: 76%
5,CCn1cc(C(=O)N2CCN(c3cc(C)ccc3C)CC2)c(=O)c2cc(S(=O)(=O)N3CCCCC3)ccc21,inactive: 76%
6,CC(Oc1ccc(Br)cc1)C(=O)Nc1ncn[nH]1 (centres undefined),inactive: 91%
7,Cc1ccc(C)c(NC(=O)C2CCCN(S(=O)(=O)c3cn(C)cn3)C2)c1 (centres undefined),inactive: 101%
8,CC1(C)CC(=O)C(Sc2nnc(-c3ccc(O)cc3)n2CC2CCCO2)C(=O)C1 (centres undefined),inactive: 103%
9,COc1ccc(NC(=O)CCc2nnc3n(Cc4ccccc4Cl)c(=O)c4ccccc4n23)cc1,inactive: 86%
10,CC1CCCCN1C(=O)C1CCN(S(=O)(=O)c2ccc(-n3cnnn3)cc2)CC1 (centres undefined),inactive: 100%
11,Cc1ccc2nc(-c3ccc(Cl)c(NC(=O)COc4ccc(C(C)C)cc4)c3)oc2c1,inactive: 59%
12,Cc1ccc(S(=O)(=O)CCSC(=N)N)cc1,inactive: 92%
13,Cc1ccc(N2C(=O)N(Cc3cc(=O)n4ccccc4n3)c3ccccc3S2(=O)=O)cc1Cl,inactive: 72%
14,CCOc1ccccc1CNC(=O)Cn1cc2c(n1)-c1c(oc(C(=O)N3CCCC3)c1C)CC2,inactive: 91%
15,CCNc1cc(N2CCN(C3CCCCC3)CC2)c2noc3c2c1C(=O)c1ccccc1-3,inactive: 84%
16,CCCCNc1c2c(nc3ccccc13)CC(C)(C)CC2O (centres undefined),inactive: 105%
17,COc1ccc(Br)cc1CNC(=O)CCSCc1ccc(C)cc1,inactive: 72%
18,Cc1ccc(S(=O)(=O)N2CCN(Cc3nc4ccc(C)cc4o3)CC2)cc1,inactive: 80%
19,O=C(Cn1cc(S(=O)(=O)c2ccccc2)c(=O)c2cc3c(cc21)OCO3)Nc1ccc(Cl)cc1,inactive: 65%
20,O=C(CS(=O)(=O)c1cccc2nsnc12)N1CCN(c2cccc(C(F)(F)F)c2)CC1,inactive: 80%
21,CSc1ccc(CCNC(=O)c2ccc(-c3nc(COc4ccc(C)cc4)c(C)o3)cc2)cc1,inactive: 99%
22,CCOC(=O)CSc1nc2ccccc2c(=O)n1-c1cccc(C)c1,inactive: 59%
23,COC(=O)c1ccccc1NC(=O)C1=C(C)C(=O)OC12CCCCCC2,inactive: 91%

row,Structure (SMILES),survival
1,COc1ccc(C(=O)Nc2ccccc2SCc2cc(=O)c3cccc(C)c3[nH]2)cc1,inactive: 71%
2,O=C(O)Cc1ccc(NC2(c3ccccc3)C(=O)c3ccccc3C2=O)cc1,inactive: 45%
3,COc1ccc(S(=O)(=O)NCCS(=O)(=O)N2CCN(c3ccccc3)CC2)cc1C,inactive: 135%
4,O=C(O)Cc1sc(Nc2ccccc2)nc1-c1ccccc1,inactive: 59%
5,CCCn1c(SCC(=O)N2CCCc3ccccc32)nnc1C(C)C,inactive: 104%
6,c1ccc(CN2CCC(N3CCN(C4CCCCC4)CC3)CC2)cc1,inactive: 105%
7,COc1ccccc1CCNC(=O)C1CCN(c2nnc(-n3cccc3CNc3ccc(C)cc3)s2)CC1,inactive: 86%
8,COc1ccc(Cl)cc1NC(=O)c1cn(C2CCCCC2)c(=O)c2c1c1ccccc1n2C,inactive: 84%
9,N/C(=N\c1nc2ccccc2o1)NC(=O)/C=C/c1ccco1,inactive: 122%
10,CCOc1ccc(Nc2nc3cc(Cl)c(Cl)cc3nc2-n2nc(C)cc2C)cc1,inactive: 88%
11,Cc1c(C(=O)N(Cc2ccc(N(C)C)cc2)CC2CCCO2)oc2ccc(Cl)cc12 (centres undefined),inactive: 86%
12,COc1ccc(N2CCN(c3csc4ccc(Cl)cc4c3=O)CC2)cc1,inactive: 73%
13,O=C(O)c1ccc2nc(-c3cc4cccc(O)c4oc3=O)[nH]c2c1,inactive: 59%
14,Cc1ccc(C)c(S(=O)(=O)c2nnn3c2nc(NC(C)C)c2sccc23)c1,inactive: 69%
15,NS(=O)(=O)c1ccc(NC(=O)CN2C(=O)COc3ccc(Cl)cc32)cc1,inactive: 84%
16,COc1ccc(CNC(=O)c2cc(-c3ccc(C)cc3)nc3n[nH]c(-c4ccc(Br)cc4)c23)cc1,inactive: 64%
17,COc1ccccc1Cn1cc(C(=O)c2ccc(C)cc2)c(=O)c2cc(C)ccc21,inactive: 121%
18,CCN(c1ccccc1)c1ccc2cc(S(=O)(=O)N3CCCC3)ccc2n1,inactive: 78%
19,Cc1ccc(-n2nc(CO)c(C(=O)NCCCc3ccccc3)n2)cc1C,inactive: 112%
20,CCc1ccccc1Nc1nn2c(=O)c3ccc(C(=O)NCc4ccccc4OC)cc3nc2s1,inactive: 72%
